ChEMBL document CHEMBL1201862, “PubChem BioAssay data set” (2004)
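All cell lines were grown in 96-well plates and treated with compound for 48 hours. GI50 is the concentration that inhibits growth by half.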 Activity calls are given as the source filed them. No stated cut-off is given here; in the data, active = GI50 up to about 1.1 µM and inactive = higher.

The compounds below were run on NCI-H322M (assay: NCI-60 cell line screen, 48 h).
Cc1nc(C)c(N2CCNCC2)c(O)n1 was tested, and the GI50 was inactive: > 100 µM. In the case of OC1(c2ccc(Cl)cc2)C(N2CCCC2)c2ccccc2C2=NCCN21 (stereo not given), the GI50 is reported as inactive: 18.6 µM. For COC(=O)C1(C(=O)OC)Cc2ccc(OC)cc2C2=C1C(=O)c1ccccc1C2=O, the GI50 was inactive: 19.6 µM. With CCCN(CCC)CCc1ccc(OC2=CCN(C)CC2)cc1 the GI50 was inactive: > 100 µM. With CCNC(=S)N/N=C(\C)c1cccc(C)n1 the GI50 was inactive: 58.5 µM. For COC(=O)/C(=N\NC(N)=O)C(C(=O)C=C(C)C)C(=O)C(=O)Nc1ccc(Cl)c(Cl)c1 (stereo not given), the GI50 was inactive: > 100 µM. c1ccc(SC(CCCCOC2CCCCO2)Sc2ccccc2)cc1 (stereo not given) was tested, and the GI50 was inactive: > 100 µM. With CCCCCCCCCCCCCCCC(=O)Nc1ccn(C2CC(OP(=O)(O)OCC3OC(n4cc(F)c(=O)[nH]c4=O)CC3OC(C)=O)C(CO)O2)c(=O)n1 (stereo not given) the GI50 was inactive: 8.04 µM. With C[n+]1c(/C=C/c2ccc(O)c3ncccc23)[se]c2ccccc21 the GI50 was inactive: 6.44 µM. In the case of COc1ccc([S+]([O-])Cc2cc(OC)c(OC)c(OC)c2)cc1 (stereo not given), the GI50 is reported as inactive: > 100 µM. In the case of O=C1OCc2cccc3c2-c2c1cccc2C(=O)OC3, the GI50 is reported as inactive: > 100 µM. For Cc1cc(NC(=O)NC(=O)c2ccccc2NC(=O)CN(C)C)ccc1Oc1ncc(Br)cn1, the GI50 was inactive: 6.5 µM. In the case of O=c1c(C(c2ccccn2)c2c(O)oc3cc(O)ccc3c2=O)c(O)oc2cc(O)ccc12, the GI50 is reported as inactive: > 100 µM. O=c1onc2n1-c1cc(Cl)ccc1C(=S)N1CSCC21 (stereo not given) was tested, and the GI50 was inactive: > 100 µM. With NNc1c(C(N)=O)c2c(N)ncnc2n1C1OC(CO)C(O)C1O (stereo not given) the GI50 was active: 0.139 µM. For ON[C@H]1C[C@@H](n2cnc3c(NC4CC4)ncnc32)[C@H](O)[C@@H]1O, the GI50 was inactive: > 100 µM. For Cc1cccc(Br)[n+]1[O-], the GI50 was inactive: > 100 µM. With CC(=O)O[C@@H]1C(=O)N(c2ccccc2)[C@@H]1c1cc2ccccc2c2ccccc12 the GI50 was inactive: 55 µM. With Cc1cccc(C)c1/N=N/c1ccc(O)c(CN(C)C)c1 the GI50 was inactive: > 100 µM. In the case of CCN(CC)CCNC(=O)c1ccccc1Nc1c(Cl)cccc1Cl, the GI50 is reported as inactive: 13.4 µM. With CC1(C)OCN(c2ccc(Cl)cc2)Cn2c1nc1ccccc12 the GI50 was inactive: > 100 µM. Cc1cc2c(nn1)-c1ccccc1C2=O was tested, and the GI50 was inactive: > 10 µM. For OCc1ccccc1C1CSCSC1, the GI50 was inactive: > 100 µM. CCCCn1c(C)c(C(=O)CC)c(C(=O)NCCN2CCN(c3ccccc3Cl)CC2)c1C was tested, and the GI50 was inactive: 17.4 µM. For C/C(=N\NC(=O)c1ccccc1O)C1=CNc2ccccc2S1, the GI50 was inactive: 4.68 µM. CCC(C)c1cccc(C)c1NC(=O)C(=O)Cc1nc2ccccc2s1 (stereo not given) was tested, and the GI50 was inactive: > 100 µM. CCOC(=O)NNC(=O)NCc1ccccc1CNC(=O)NNC(=O)OCC was tested, and the GI50 was inactive: > 100 µM. With Cc1cc2c(nn1)CCc1c-2no[n+]1[O-] the GI50 was inactive: > 100 µM. In the case of CCCNC1=C(C(=O)OCC)C(=O)CO1, the GI50 is reported as inactive: > 100 µM. With CC1C(O)=C(O)c2ccccc2N1O (stereo not given) the GI50 was inactive: > 100 µM. For Cc1ccc(/C=C2\CCCC\C2=N\O)cc1, the GI50 was inactive: 90.2 µM. In the case of COc1ccc(/C=N/n2c(=O)[nH]c3ccccc3c2=O)cc1, the GI50 is reported as inactive: > 100 µM. For COc1c(C(=O)/C(=N/Nc2ccccc2)C(C)=O)c(O)c(OC)c2occc12, the GI50 was inactive: > 100 µM. For CSC(=S)OC1C(CO[Si](C)(C)C(C)(C)C)OC2OC(C)(C)OC21 (stereo not given), the GI50 was inactive: 20.9 µM. In the case of CCCP1(=O)C=C(C)C(=C(Cl)Cl)C(C)=C1 (stereo not given), the GI50 is reported as inactive: 49.9 µM. With CCCC(=O)OC[n+]1ccc2c(C)c3[nH]c4ccc(OC)cc4c3c(C)c2c1 the GI50 was active: 0.334 µM. With Cc1cccc(/C=N/N=C(\N)NO)n1 the GI50 was inactive: 87.9 µM. CC(O)(c1ccccc1)c1nccc2ccccc12 (stereo not given) was tested, and the GI50 was inactive: 68.9 µM. CCN(CC)c1ccc2cc(C(N)=O)c(=N)oc2c1 was tested, and the GI50 was inactive: 39.3 µM. Nc1nc(N)c2ncn(Cc3ccccc3)c2n1 was tested, and the GI50 was inactive: > 100 µM. For COc1ccc2c(C(=O)O)cc3cc(OC)c(OC)cc3c2c1, the GI50 was inactive: > 100 µM. For CC(=O)OCCOCNC(=S)N/N=C/c1cc([N+](=O)[O-])ccc1O, the GI50 was inactive: 58.6 µM. With CSC(SC)=C1C(=O)NN=C1C the GI50 was inactive: > 100 µM. With O=c1cc(-c2cccnc2)[nH]c2cc3c(cc12)OCO3 the GI50 was inactive: 6.58 µM. For CC(C)C1CNC2N1C(=O)C2(C)OCc1ccccc1 (stereo not given), the GI50 was inactive: > 100 µM. In the case of CC(=O)NNc1nc(C)c(C(/C=C/c2ccc(Cl)cc2)=N\N=C(N)N)s1, the GI50 is reported as inactive: > 100 µM. For CN(N=O)C(=O)NC(CCCCNC(=O)OCc1ccccc1)C(=O)OCc1ccccc1 (stereo not given), the GI50 was inactive: > 100 µM. O=C(c1ccccc1)C(c1ccccc1)C1(O)C(=O)Nc2c(Cl)ccc(Cl)c21 (stereo not given) was tested, and the GI50 was inactive: 26.5 µM. With CC(SC(=O)Nc1ccc(/N=N/c2ccccc2)cc1)C(=O)O (stereo not given) the GI50 was inactive: 61.5 µM. For CNc1ncnc2c1ncn2C1C=CC(COS(N)(=O)=O)C1 (stereo not given), the GI50 was inactive: > 100 µM.
